Laboratory results taken from the supplement of paper PMC11417369.
The list shows a part of the results.

test system: PfSIP2 AP2 domain 1 (GST-tagged); assay: gcPBM binding intensity (ln(normalized median fluorescence intensity)); higher = stronger DNA binding
Summary of the method: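 Binding intensity values are the highest Masliner-normalised natural-log median intensity among replicate spots of either probe orientation. The binding step lasted 1 h in 1× PBS with 1% milk, 0.2 mg/ml BSA, 0.5% salmon testes DNA and 0.03% Triton X-100, using GST-tagged P. falciparum DNA-binding domains expressed in E. coli on an Agilent 4 × 180k array of primer-extended double-stranded 36-bp intergenic genomic probes plus negative controls. Alexa488 anti-GST antibody and a 488 nm scan detected bound protein.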

Sequence | gcPBM binding intensity (ln)
GGACAAGTTAAACGCACACAAATATATACCCCCATA [CACACA_site4996] | 7.87
GATGTGATGTATTTGGTATTTTTCGATGTTGGTAGG [CACACA_negctrl_site355] | 7.1
TATTATATATCAAAATGTACATTAATTTGAGTAATT [XGTACX_site5434] | 6.82
TTACCTCTTTGAAATATACACACTAATCATATCAAC [CACACA_site8778] | 7.16
TTTTTGCTATTCTATTATATATATAATATATTTTAC [CACACA_negctrl_site262] | 7.01
TGTTCAGTAGGGCACACACACAACAAAATAAAAAAA [CACACA_site378] | 7.32
GAGATTTATTTATGTGCACACTAGAACAATTGGATC [CACACA_site2090] | 8.98
TTTTTTTTTTTTGTGCGTACATACCATTTTAATAAT [XGTACX_site2760] | 7.38
CTTTTTTCAAAACACACACACAAGAAAATATATATA [CACACA_site3109] | 7.23
AAGACATTTTTTAAGGTGCTTTGGAAAAAGGAGTAT [GTGCAC_site9816] | 7.62
AAACATAAATATGAGAGTACAAAAAATATTATGAAT [XGTACX_site151] | 7.05
TGAAAAAAAAAATGCACACGCATACATATAATATGT [CACACA_site641] | 7.13
TTATAATATATTACAAGTTCATTCATATAATATGTT [CACACA_negctrl_site1695] | 6.8
ATCTCTTAAATTTTACGTACTTATTTTATCTTCTTA [XGTACX_site8877] | 6.9
AATAAATACATACATACATGCATACATATATCTCAA [TGCATGCA_site1040] | 7.1
AAAAATAAAATATATATATATATATATATATATATA [CACACA_negctrl_site58] | 9.66
TATTTTTATATATATACACACTTACAGATATATATT [CACACA_site5905] | 7.14
AAAGGGGAGATATGAACACACAAAAAAAAAATATAT [CACACA_site7378] | 7.06
TATATATATTTTAAATGTACTTATAAATTACCACTT [XGTACX_site5673] | 7.26
AGAAAGGATATAAGCGTAGCTATATCATAAAAAATG [GTGCAC_negctrl_site332] | 6.68
AAATAAAATTTTTGTTGTACTTATTTTTAGTATACT [XGTACX_site4254] | 7.23
AATATTTACAGACATGCGCACACATAAATAAATAAT [CACACA_site8760] | 8.81

Sequence | gcPBM binding intensity (ln)
TAAATAAATTTGCACTGTACGCAAAAAAAAAAAAGA [XGTACX_site8781] | 8.67
GTATATATATATTTATGTACTTACCTACATAATTAT [XGTACX_site4435] | 7.14
CCTTTTAAGAGTTGCACACGTACAAAAAAAAAAAAA [CACACA_site3492] | 8.01
AATAATAAAAAATACGCACACATGTAAACGTATGTT [CACACA_site3336] | 7.08
GGCGATATAGAACTACGTACTTATACAAATTATAAT [XGTACX_site2307] | 7.23
ACACATAAATGTATATATATATAAATATATGTATGT [CACACA_negctrl_site1532] | 7.08
TATATATATATATATAAGCTTATAATAAAACAAAAA [XGTACX_negctrl_site568] | 9.45
ATAGCAATAATGGAAAGTACAAAAAAACTTGTTATA [XGTACX_site8518] | 6.84
TGTATTAATAAAAATACACACATCATATTATATAAA [CACACA_site3534] | 6.84
AATCCTTACAGACACACACACACGAATAAATAAAAA [CACACA_site480] | 7.3
TATGTATTATCAAAAAGTACTAAAAAAAAATAATAA [XGTACX_site4703] | 6.99
TTATAATTTTTGAGCACACACAAGCATATATATATA [CACACA_site1798] | 9.3
ATAAATGTTATGCATACACACTTTATACCTATTTAA [CACACA_site5967] | 7.24
AAAAAAAAAAAACACACACACACATACAAAATATAT [CACACA_site1448] | 7.14
ACATATGAATATTTTTGTACGTATATTGTTATTCTT [XGTACX_site4720] | 7.18
TTTTTTTTTATTATCATGCACACATTTTTTTTTTTT [CACACA_site2254] | 7.56
AATTATACGAAATAAAACTTAATAGACAAAAAATTA [CACACA_negctrl_site1384] | 6.78
GTAATTTAAATAACAAGTACTAATGTGGATAAGCAG [XGTACX_site1163] | 7.58
GTATATTTAAATAAAAGTACGTAAAGATATATTTAA [XGTACX_site8087] | 7.14
ATAATATGCAATATTACACACAATTCATCATTTTTT [CACACA_site7477] | 6.83
AACAAAATAAAACACACACACAAATGTACATATATA [CACACA_site2424] | 7.1
TAGAAGCATCATTTTACACACATGCAAATGTAAACT [CACACA_site6973] | 6.66

Sequence | gcPBM binding intensity (ln)
ATTTTGTATTGACGCTGTACAAACATTAATATAATA [XGTACX_site2496] | 7.07
TTTTGCGTAGCAACGAGGTTTTTAAAAATGTAACCA [GTGCAC_negctrl_site691] | 6.79
TATGCAAATTAATAATGTACGAAATATTTATAATTT [XGTACX_site2324] | 6.86
AAAAGGAACGGACACACACACATATATATATATATA [CACACA_site5894] | 9.31
AATAAATTAGAAGGATGTACTTTGTTTAATATAGAG [XGTACX_site1943] | 7.07
TAATATAATCTGAGTGCACACAAATAAATAAACATA [CACACA_site8032] | 10.3
AGGTTATATATGAACAAAAATAAAATATTCATAGGC [TGCATGCA_negctrl_site46] | 6.96
ATATGTAAAATGAAGATACATACATACATACATACA [CACACA_negctrl_site715] | 7.87
ATGTTATAAAATATATGTACATATTTATATAAAATA [XGTACX_site5766] | 7.27
ATATTATATATATGATGTACTAAATATATTATTATG [XGTACX_site1703] | 7.08
TATTTTATATTATCATGTACAAAAAAAAAGAAAAGA [XGTACX_site5379] | 7.13
ATAAATAATTAGAATTGTACAAAAATTATATATATG [XGTACX_site5107] | 6.79
TATATAAAAAGTAATTGTACATATATATATATATAT [XGTACX_site7953] | 9.28
ATATATTTATATAAATGTACACGTGAATATATAATA [XGTACX_site1166] | 7.34
TCTATTAATGAATATACACACATTATATATATATAT [CACACA_site5410] | 9.13
TTTATATTCTTTTTTTAACACACAAAAAAAATAAAA [CACACA_site8574] | 7.2
TATCTTCATATATGGTGTACAGATTTTTTTTTTTTT [XGTACX_site5545] | 7.26
ATAAAATTATTATATACATGCAAAATTAATATATTG [TGCATGCA_site507] | 6.84
AAAATAAAAAAAATGAATTAGTTAAATGAAAAATAA [CACACA_negctrl_site1294] | 6.89
ATTATATAATAATGCATGCACCTTATTTTCATTTCA [GTGCAC_site9922] | 10.7
TTTCTTTTTTTGGGCACACAAAATTTTCTCATTTTA [CACACA_site68] | 6.96
TGAATAAATAAACACACACACATATATATATCTGTA [CACACA_site4184] | 7.06

Sequence | gcPBM binding intensity (ln)
GTTATACATTTGAAAAGTACTCATGATTTTTTTTTT [XGTACX_site8177] | 7
AATATTCAATATAAAGTGCATTATTGTGCCCCTAAT | 8.36
TTTTTATTGTTATACTTATATTATTTTATGATTAAA [XGTACX_negctrl_site262] | 7.04
ATAAAAATCAAAAAAAATACATAATAGTAATAATAA [GTGCAC_negctrl_site481] | 6.83
AAATAGAAAAAATATACACACACTTATTAAATAAAA [CACACA_site3313] | 6.78
AAATAATAAAGTATAACACACATATTTATTTATATA [CACACA_site7822] | 6.73
AAAATTAAAAAAATATGTACTTATGGGTAACATCAT [XGTACX_site5548] | 6.98
AAAAAATTTTAATATGCATGTAATTTTGCTTTTTCA [TGCATGCA_site1044] | 6.76
AGCACGCACAGACACACACACATATTTATATTTATA [CACACA_site6291] | 7.29
TAATATAGGGGTGTTCAAATAAATTTTGTTATTTTT [CACACA_negctrl_site1203] | 7.07
ACCTATTTCAAACACACACACACACCCACAAACATA [CACACA_site977] | 7.62
ACGAATATAGGATGTTTGCACTGTACCAATAAATGA [GTGCAC_site9808] | 7.9
TTCTTAATACAAATATGTACATATATATATATATAT [XGTACX_site757] | 8.83
GATGTGTAAATAAGGATATATAACAATCAACAAAAC [XGTACX_negctrl_site494] | 7.36
AATAGAAAAAAAAAATGTACAAAATGTTTATAAAAA [XGTACX_site4635] | 6.79
TCATTTTAAGGAAAAAGTACAAAATAATATGTTCCT [XGTACX_site1903] | 6.67
AAATGAATATAAAATATACACACTTATATATTGAAT [CACACA_site202] | 6.81
AAATTACCCTTGTGTACACATATATTATCTGTATTA [CACACA_site4514] | 7.1
TATTGAAAGTGAATTATAACATTAAAAATATATATA [TGCATGCA_negctrl_site566] | 6.96
TGAATATGTAAATGCACACCAAAAAAAAAAAAAAAA [CACACA_site3566] | 7.29
CAATATAAAAGACACACACACAAACATATATTTATA [CACACA_site7697] | 6.89
GAAGGAAATAAATCAACACACATATATTATAGATAT [CACACA_site7095] | 6.69
